# From PubChem BioAssay AID624296 (National Center for Advancing Translational Sciences (NCATS), 2012)
# Out of some 350,000 compounds screened, about 9,900 (2.8%) were called active. The shares of active, inactive and inconclusive entries below differ from those in the screen. Calls follow the shape of the dose curve; as a rule, active = well fitted activation curve with a large enough effect; inconclusive = small, poorly fitted or top-dose-only effect; inactive = no such curve, though single readings can be large or run the other way. No potency is given beside an inconclusive call; the fits are too rough.
# Experiment: A quantitative high throughput screen for small molecules that induce DNA re-replication in MCF 10a normal breast cells. Also: nearly all actives have a fitted effect of over 50% in size.
# Details: MCF 10A DNA re-replication, Hoechst nuclear intensity, 48 h; series mostly up to 46.1 µM
# From the text: H Molecular Libraries Probe Production Network [MLPCN]
# NIH Chemical Genomics Center [NCGC]
# Assay Provider: Melvin DePamphilis, NICHD, NIH
# Eukaryotic cells normally restrict genome duplication to once per cell division. When this process is aberrant, DNA re-replication occurs when cells reinitiate DNA replication before the first round of replication is complete. DNA re-replication induces the DNA damage response, arrests cell proliferation, and triggers apoptosis. The cell cycle components cyclin A, Cdt-1, Cdc6 and geminin are critical regulators of this process and their misregulation results in DNA re-replication in normal and cancer cells. To identify compounds that induce re-replication in normal cells, an image-based assay was used to measure DNA content of nuclei, as detected by the fluorescent DNA binding dye, Hoechst. Cell nuclei were imaged by a fluorescence scanning plate imager and compounds that induce DNA re-replication were identified by the increase of nuclei with elevated fluorescence intensity
# For screening, 250 cells in 5 uL/well were dispensed into black clear 1536-well plates (Aurora) using a solenoid-based dispenser. Following transfer of 23 nL compound or DMSO vehicle by a pin tool, the plates were incubated 48 hr at 37 C and 5% CO2. […]
# Potency is read from the fitted curve at half-maximal effect; tags tell the direction and shape of the fitted curve.
row,Structure (SMILES),Potency
1,CCc1nnc(NS(=O)(=O)c2ccc(N/C=C(\C=O)c3nc4cc(Cl)ccc4o3)cc2)s1,"inconclusive [activator, single point]"
